{"source": "patent EP1141005B1", "about": "(Angiogenetics Sweden AB, dated 2007)", "binders": {"B1": {"name": "GST alone (other)", "chain": "not shown", "notes": "Control; also called purified GST; empty GST expression vector"}}, "biological_target": "T1, GAL4/HIF 1-826 (full length HIF-1α fused to the GAL4 DNA binding domain) (human, UniProt P04386 1-147; Q16665 1-826, [35S]methionine-labeled in the pull-down of paragraph 59 (in vitro translated))", "T1 construct": "also called GAL4-HIF-1α; pCMX-GAL4-HIF-1α", "assay": "pull-down of in vitro translated [35S]-labelled GAL4/HIF 1-826 with purified GST on anti-GST affinity gel"}
{"binder": "B1", "values": [{"measurement": "binding result", "value": "no binding"}]}
